In all, about 310,000 compounds went through this assay and about 2,200 (0.71%) showed an effect of 50% or more. Effects have a minus sign here. The list shows a part of the results.
These compounds were tested against human ether-à-go-go-related gene (hERG) potassium channel (human, UniProt Q12809) (assay: primary screen, population patch clamp on CHO cells stably expressing hERG).
human ether-à-go-go-related gene (hERG) potassium channel, sequence (Q12809 whole entry, looked up): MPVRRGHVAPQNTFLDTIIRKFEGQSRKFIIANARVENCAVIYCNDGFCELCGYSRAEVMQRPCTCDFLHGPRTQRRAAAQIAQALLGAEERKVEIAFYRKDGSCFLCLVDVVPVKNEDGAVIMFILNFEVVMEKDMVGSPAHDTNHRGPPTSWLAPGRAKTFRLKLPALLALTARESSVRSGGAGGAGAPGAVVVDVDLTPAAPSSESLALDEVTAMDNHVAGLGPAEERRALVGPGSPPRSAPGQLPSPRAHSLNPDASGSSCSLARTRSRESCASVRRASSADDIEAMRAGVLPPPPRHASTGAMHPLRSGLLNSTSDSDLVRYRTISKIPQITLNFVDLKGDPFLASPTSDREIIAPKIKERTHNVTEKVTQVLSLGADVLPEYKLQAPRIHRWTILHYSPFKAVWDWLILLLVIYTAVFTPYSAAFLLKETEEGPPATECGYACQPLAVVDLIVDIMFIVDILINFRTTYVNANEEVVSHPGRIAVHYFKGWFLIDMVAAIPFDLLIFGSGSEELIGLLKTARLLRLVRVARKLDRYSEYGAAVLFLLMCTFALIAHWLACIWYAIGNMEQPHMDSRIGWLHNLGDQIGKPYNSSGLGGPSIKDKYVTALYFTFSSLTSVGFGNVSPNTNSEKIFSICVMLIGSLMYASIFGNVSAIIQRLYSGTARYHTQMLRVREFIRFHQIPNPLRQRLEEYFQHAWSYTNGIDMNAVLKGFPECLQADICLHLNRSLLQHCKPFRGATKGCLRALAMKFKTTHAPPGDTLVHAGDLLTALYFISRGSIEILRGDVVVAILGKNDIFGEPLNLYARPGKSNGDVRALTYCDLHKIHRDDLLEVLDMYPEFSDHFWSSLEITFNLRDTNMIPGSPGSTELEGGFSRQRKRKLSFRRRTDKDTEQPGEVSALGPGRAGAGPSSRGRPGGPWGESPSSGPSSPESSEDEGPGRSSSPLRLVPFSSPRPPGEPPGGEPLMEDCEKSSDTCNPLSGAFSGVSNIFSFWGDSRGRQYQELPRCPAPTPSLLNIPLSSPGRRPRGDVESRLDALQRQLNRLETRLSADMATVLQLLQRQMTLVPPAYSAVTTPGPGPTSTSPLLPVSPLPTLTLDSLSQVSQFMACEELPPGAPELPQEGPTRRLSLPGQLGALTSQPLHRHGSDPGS

Structure (SMILES)	hERG current change (%, negative = inhibition) at 1uM
O=c1c2ccccc2nc(SCc2cn3ccsc3n2)n1-c1ccccc1F	8.53%
CC(c1ccccc1)n1c(N2CCN(C)CC2)nc2c1c(=O)[nH]c(=O)n2C (centres unmarked)	1.3%
COc1ccc(CC(CN)c2ccccc2)cc1 (centres unmarked)	9.26%
COc1ccc(C(=O)COC(=O)c2cccnc2SC)cc1	4.19%
CC(=O)NS(=O)(=O)c1ccc(N)cc1	5.19%
c1ccc2c(c1)CCc1snnc1-2	12.1%
O=S(=O)(c1ccc(-c2csc(=Nc3ccccc3)n2CCCN2CCOCC2)cc1)N1CCOCC1	-1.19%
CCSc1cc(N2CC(C)OC(C)C2)nc(-c2ccccc2Cl)n1 (centres unmarked)	17.6%
COc1cc(NC(=S)NCCC(c2ccccc2)c2ccccc2)cc(OC)c1	3.65%
N#CCc1c(C#N)c(N)nc(N2CCCC(O)C2)c1C#N (centres unmarked)	11.3%
COc1ccc(CCNC(=O)CCNS(=O)(=O)c2ccc3c(c2)CCN3C(C)=O)cc1OC	-1.63%
COC/C=C/C1=CC2=CC(=O)C(C)(OC(=O)c3cnc4ccccc4n3)C(=O)C2=CN1CC(C)C (centres unmarked)	14.7%
O=C(CN(C(=O)c1csnn1)c1cccc2c1CCCC2)NCc1ccccc1	12.3%
N#C/C(=C\c1c[nH]c2ccccc12)c1nnc2n1CCCCC2	-5.7%
COc1ccccc1CNC(=O)CNC(=O)[C@@H]1Cc2ccccc2CN1	3.47%
c1cncc(CNc2ncnc3ccc(-c4ccoc4)cc23)c1	-6.62%
COC(=O)C1C2C=CC3(CN(c4ccc(Cl)c(F)c4)C(=O)C13)O2 (centres unmarked)	7.22%
CC1CC(C)CN(C(=O)CSc2nnc(-c3ccc(F)cc3)o2)C1 (centres unmarked)	0.0034%
O=C(OCCN1CCN(c2ncc(C(F)(F)F)cc2Cl)CC1)c1ccc(F)cc1	7.23%
CCN1CCN(c2cc(C)c3cc(NC(=O)c4cccc(OC)c4)ccc3n2)CC1	6.09%
O=C(c1cccc(C(F)(F)F)c1)C1CCCN(C(=O)C2CCOCC2)C1 (centres unmarked)	-16.6%
COC(=O)C1CN(C(=O)C(C)Oc2ccccc2F)c2ccccc2O1 (centres unmarked)	16.6%
O=C(CN1C(=O)NC2(CCCC2)C1=O)Nc1cccc(-c2nnc3n2CCCCC3)c1	6.07%

Structure (SMILES)	hERG current change (%, negative = inhibition) at 1uM
CC1CCCC(NC(=O)C2c3ccccc3C(=O)N2Cc2cccs2)C1C (centres unmarked)	-2.85%
C=CCN1C(=O)C2C(C(=O)NCc3ccccc3)C3C=CC2(O3)C1C(=O)NC(C)(C)C (centres unmarked)	4.61%
CCn1cnc2sc(C(=O)N3CCN(c4ccc(OC)cc4)CC3)c(C)c2c1=O	-1.71%
COc1ccc(Nc2nc3ccccc3n3nnnc23)cc1	-8.69%
CCOC(=O)N1CCN(C(=O)CCN2C(=O)c3ccccc3S2(=O)=O)CC1	12.5%
COc1ccc(S(=O)(=O)NC2CCCC2)c(OC)c1	2.09%
COc1ccc(C2(C)NC(=O)N(CC(=O)Nc3ccc(-c4nc5ccc(C)cc5s4)cc3)C2=O)cc1 (centres unmarked)	15.3%
CC(=O)C1=C(O)C(=O)N(c2ccc(O)cc2)C1c1cccc(F)c1 (centres unmarked)	18.1%
COc1ccc(/C=C2\SC(=O)N(CC(=O)NCCC(C)C)C2=O)cc1OC	1.8%
Cc1ccc(NC(=O)CN2C(=O)NC3(CCc4ccccc43)C2=O)cc1 (centres unmarked)	13.6%
COCCNC(=O)c1ccc(CS(=O)(=O)c2ccc(Cl)cc2)o1	12.8%
CCOC(=O)c1c(NC(=O)c2ccc(C)cc2)sc2c1CC(C)(C)OC2	8.11%
Cc1nc(-c2ccc([N+](=O)[O-])cc2)c(-c2ccccc2)o1	12.8%
COc1ccc(CNC(c2ccccc2)c2ccc(Cl)cc2)cc1 (centres unmarked)	9.64%
Cc1nc2cc(C(F)(F)F)ccc2n1C	2.26%
COc1ccc(/C=N/OC(=O)Nc2ccccc2OC)cc1	9.82%
CC(=O)N1CCN=C1SCc1cccc(Cl)c1	10.7%
O=C(NNC(=S)NCc1ccccc1)c1ccccc1OC(F)F	9.1%
CCc1nnc(NC(=O)CSc2nnc(-c3c[nH]c4ccccc34)n2CCOC)s1	-9.97%
COc1ccc(CCNC(=O)COC(=O)Cc2ccccc2)cc1	3.37%
Oc1[nH]c2ccc(Br)cc2c1N=NC(=S)N1CCOCC1	17.6%
O=C(COC(=O)c1cccnc1Cl)NCC1CCCO1 (centres unmarked)	-0.515%
Cn1nc(C(=O)NCc2cccnc2)c2ccccc2c1=O	4.43%

Structure (SMILES)	hERG current change (%, negative = inhibition) at 1uM
CSC(=S)N/N=C(\C)c1ccc(Br)cc1	25.6%
CCOc1cc(C(=O)Nc2cc(=O)n(C)c(=O)n2C)cc(OCC)c1OCC	7.23%
CC(=O)N1CCOc2ccc(S(=O)(=O)NCCc3ccccc3)cc21	13.2%
O=C(COC(=O)CN1C(=O)c2ccccc2C1=O)Nc1ccccc1[N+](=O)[O-]	12%
C=C(C(=O)c1ccccc1)C(C)CC(=O)c1ccccc1 (centres unmarked)	16%
Cc1cc(C)n(-c2nc3nonc3nc2Nc2cccc(C)c2C)n1	2.83%
Cc1cc(Cl)ccc1OCCCC(=O)N1CCN(C(=O)c2ccco2)CC1	-59.1%
COc1cccc(NC(=O)Cn2c(=O)n(-c3ccccc3)c(=O)c3sccc32)c1	13.5%
NC(=O)COC(=O)/C=C/c1cccc(Br)c1	13%
Cc1ccc(O)c(CCc2ccccc2)n1.Cl	16.2%
COc1cc(OC)c(CN2CCC(CO)(CCOc3ccccc3)CC2)c(OC)c1	-87.7%
O=C1CCCN1C(=O)c1cncc(Br)c1	-14.3%
OCCC1CN(Cc2ccccc2O)CCN1CCc1ccccc1 (centres unmarked)	0.469%
Clc1ccc(/C=C/c2nc3ccccc3[nH]2)cc1	-1.63%
Cc1ccccc1OCC(=O)N/N=C/c1cn(C)c2ccccc12	10.3%
COc1ccccc1NC(=O)N(Cc1ccco1)Cc1cc2ccc(C)c(C)c2[nH]c1=O	11.4%
CN(CC(=O)Nc1ccc(Cl)cc1)C(=O)Cc1c(F)cccc1Cl	13.6%
Cn1ncc([N+](=O)[O-])c1C(=O)Nc1ccc(C2CCCCC2)cc1	13.7%
O=C(NCc1ccco1)C(=O)c1cn(CC(=O)N2CCCCCC2)c2ccccc12	7.29%
O=C(NC(=S)N(CCO)Cc1ccccc1)c1ccc(S(=O)(=O)N2CCCC2)cc1	11.6%
O=C(NCc1cnn(-c2ccc(F)cc2)c1)C1CCC(=O)N(C2CC2)C1 (centres unmarked)	7.86%
C/C(=N\Nc1ccccn1)c1ccc(OC(F)F)cc1	-39.1%
COc1ccc(CCNC(=O)CSc2ccc(-c3ccccc3)nn2)cc1OC	10.6%

Structure (SMILES)	hERG current change (%, negative = inhibition) at 1uM
COc1ccc(NC(C)=O)cc1CP(=O)(c1ccccc1)c1ccccc1	15.6%
CS(=O)(=O)N(Cc1ccccc1)c1ccccc1C(=O)Nc1ccccc1C(=O)NCc1ccco1	-1.7%
O=C(NCCCN1CCCC1)c1cccc(N2CCCC2=O)c1	12.3%
CC(=O)NC(NC(=S)Nc1ccc(N=Nc2ccccc2)cc1)C(Cl)(Cl)Cl (centres unmarked)	15.4%
Clc1ccc(-c2cnc3n2CCC3)cc1	-5.37%
O=C(O)c1c(N2CCCCC2)ccc([N+](=O)[O-])c1N1CCCCC1	13.3%
COc1ccc(C2(C(=O)Nc3nncs3)CCCC2)cc1	-10%
CSc1ccc(CNCCN2CCOCC2)cc1.Cl	7.48%
COc1ccc(OC)c(NC(=O)CSc2nc3nc(C)cc(C)n3n2)c1	3.13%
CSc1nncc(=O)[nH]1	-2.03%
COc1cccc(CNc2cccc(C(F)(F)F)c2)c1O	9.99%
Cc1nc2ccc(S(=O)(=O)NCC(=O)N3CCC(N4CCCCC4)CC3)cc2s1	-16.4%
COC(=O)c1cccc(NC(=O)CCCOc2ccccc2)c1	0.591%
S=C(NCC1CCCO1)n1nnc2ccccc21 (centres unmarked)	7.09%
CC(=O)c1cccc(NC(=S)NC(=O)c2ccc(C)cc2)c1	8.71%
COc1ccc(N2CCC(CNC(=S)Nc3cc(C)cc(C)c3)C2)cc1 (centres unmarked)	3.85%
CCNC(=O)N1C(CC(=O)OCC)C(=O)NC2CCCCC21 (centres unmarked)	6.84%
CCn1c(NCc2ccccn2)nc2c1c(=O)n(C)c(=O)n2C	-1.03%
O=C1NC(=O)C(=O)N1	12%
Cc1cccc(NS(=O)(=O)c2cc3c4c(c2)C(C)C(=O)N4CCC3)c1 (centres unmarked)	11%
CN(CC(=O)NCc1cccs1)S(=O)(=O)c1cccc2cccnc12	10.7%
COc1ccc(C2(CNC(=O)c3cccc([N+](=O)[O-])c3)CCCCC2)cc1OC	-4.58%
C/C(=N\OC(=O)NC1CCCCC1)c1sc(-c2ccccc2)nc1C	4.66%
